Reference: patent publication US7253149B2, “Compounds and methods for modulating cell-adhesion mediated drug resistance” (University of South Florida, priority 2000, dated 2007)

System: 8226 myeloma cells
Test: Microtiter adhesion assay, adhesion of 8226 cells to fibronectin

Substance: kmviywkag ([dK][dM][dV][dI][dY][dW][dK][dA]G) [RZ-3]
- effect on adhesion of 8226 cells to FN (1.25 μg/ml to 20 μg/ml, FIG. 24 and 25): effective in preventing FN adhesion
- effect on adhesion of 8226 cells to FN (20 μg/ml to 100 μg/ml, FIG. 23): effective in preventing FN adhesion

Where no end group is shown, it is not given here. [ ]: non-standard residue; d: D form.
